# Experimental data taken from PMC6262871.
# By UniProt entry, the sequences of proteins in these tests, tags left out. Residues count along the entry.
# UniProt P01731, residues 28-247: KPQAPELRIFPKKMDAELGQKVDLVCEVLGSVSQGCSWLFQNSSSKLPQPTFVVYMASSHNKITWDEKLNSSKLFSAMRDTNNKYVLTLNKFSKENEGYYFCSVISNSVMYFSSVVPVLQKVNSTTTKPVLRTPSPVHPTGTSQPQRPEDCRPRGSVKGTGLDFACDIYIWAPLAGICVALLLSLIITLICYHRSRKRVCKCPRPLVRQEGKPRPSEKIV
# UniProt P18537, residues 19-581: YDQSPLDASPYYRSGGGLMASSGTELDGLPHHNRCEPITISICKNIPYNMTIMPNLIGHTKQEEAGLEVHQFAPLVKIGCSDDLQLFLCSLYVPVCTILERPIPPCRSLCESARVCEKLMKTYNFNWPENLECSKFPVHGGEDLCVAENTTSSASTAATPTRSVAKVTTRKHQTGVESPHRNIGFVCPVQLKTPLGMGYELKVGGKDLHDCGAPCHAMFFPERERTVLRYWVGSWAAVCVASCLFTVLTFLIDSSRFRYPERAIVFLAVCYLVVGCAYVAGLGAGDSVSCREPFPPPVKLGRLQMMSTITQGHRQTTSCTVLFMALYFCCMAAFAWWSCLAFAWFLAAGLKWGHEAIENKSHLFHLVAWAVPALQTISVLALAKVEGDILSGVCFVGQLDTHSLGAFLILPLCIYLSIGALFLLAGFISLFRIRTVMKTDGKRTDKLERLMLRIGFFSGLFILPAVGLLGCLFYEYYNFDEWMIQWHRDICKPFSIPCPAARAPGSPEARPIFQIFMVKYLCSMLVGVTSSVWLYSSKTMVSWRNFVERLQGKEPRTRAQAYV
# These are yes or no findings as the source states them, for the method shown. In cells and extracts the contact can be indirect. Some entries that bind do so weakly or less than the wild type. For some of these results: Where a sequence is shown, tags or fusion partners need not be part of it.
# T1: GFP-tagged Ror (Drosophila) (UniProt Q24488)
# T1 sequence: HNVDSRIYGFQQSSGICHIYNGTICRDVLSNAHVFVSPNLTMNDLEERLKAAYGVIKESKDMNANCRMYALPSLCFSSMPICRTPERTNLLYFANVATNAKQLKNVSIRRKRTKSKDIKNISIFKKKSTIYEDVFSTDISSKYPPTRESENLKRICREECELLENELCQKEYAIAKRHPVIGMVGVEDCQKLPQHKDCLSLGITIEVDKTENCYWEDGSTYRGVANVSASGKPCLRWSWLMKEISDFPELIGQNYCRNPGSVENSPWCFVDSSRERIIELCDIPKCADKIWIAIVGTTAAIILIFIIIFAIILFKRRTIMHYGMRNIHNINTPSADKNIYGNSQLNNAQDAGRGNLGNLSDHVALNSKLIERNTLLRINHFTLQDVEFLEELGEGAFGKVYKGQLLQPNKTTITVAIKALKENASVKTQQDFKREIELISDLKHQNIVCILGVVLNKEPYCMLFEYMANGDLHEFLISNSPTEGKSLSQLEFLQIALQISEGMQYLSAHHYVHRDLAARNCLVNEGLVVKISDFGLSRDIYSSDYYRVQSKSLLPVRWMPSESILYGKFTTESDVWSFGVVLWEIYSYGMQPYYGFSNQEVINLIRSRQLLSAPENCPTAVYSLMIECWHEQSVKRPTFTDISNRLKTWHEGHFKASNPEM
# B1: Myc-tagged Otk (receptor, UniProt Q6AWJ9 23-1033)
# chain: SSSRFQRVPQSQSVVENESVKFECESTDSYSELHYDWLHNGHRIAYDKRVHQIGSNLHIEAVRRTEDVGNYVCIATNLASGAREASPPAKLSVIYLESASVQLLGSNRNELLLKCHVEGASGDLEPLEIEWYRNSEKLSTWKNVQLDQHRLIIRQPGSEDDGLYRCTASNAAGRVMSKQGYVYQSSVKCLPRLPRRKNEKMMESWDKQTFLCRGKRGGAAGLEALPAAPEDLRIVQGPIGQSIIKEGEPTALTCLYELPDELKNQRIQLRWRKDGKLLRQVELGGSAPIPGHSFDSGKDALLREDARLVLHKQNGTLSFASIIASDAGQYQCQLQLEAHAPINSSPGILEVIEQLKFVPQPTSKNLELDAVVAKVHCKAQGTPTPQVQWVRDGENTTLPDHVEVDANGTLIFRNVNSEHRGNYTCLATNSQGQINATVAINVVVTPKFSVPPVGPIETSEQGTVVMHCQAIGDPKPTIQWDKDLKYLSENNTDRERFRFLENGTLEIRNVQVEDEGSYGCTIGNSAGLKREDVQLVVKTTGDGFAPEESGGDGFLVTRAVLITMTVALAYIVLVVGLMLWCRYRRQARKARLNDLSTKEAGGDQPDVAGNGKGSEQEPCLSKQHNGHSKSRSKSSGDAQKSDDTACSQQSRASKKSAHIYEQLALPRSGLSELIQIGRGEFGDVFVGKLKATLVTSPSDKDADTEKQHSNSENGSGGSGSGSTTLSTLNEKRRSKTSMDDIEEIKEEEQDQHNQSGLEQLVLVKALNKVKDEQACQEFRRQLDLLRAISHKGVVRLFGLCREKDPHYMVLEYTDWGDLKQFLLATAGKVNTATAGSSSPPPLTTSQVLAVAYQIARGMDAIYRARFTHRDLATRNCVISSEFIVKVSYPALCKDKYSREYHKHRNTLLPIRWLAPECIQEDEYTTKSDIFAYGVVVWELFNQATKLPHEELTNEQVVQRSQAGSLEWSVAEATPDSLREILLSCWVSNPKERPSFSQLGAALSKAMQSAEK
# B2: Myc-tagged Wnt5 (ligand, UniProt P28466 30-1004)
# chain: TVGLQGVPTWIYLGLKSPFIEFGNQVEQLANSSIPLNMTKDEQANMHQEGLRKLGTFIKPVDLRDSETGFVKADLTKRLVFDRPNNITSRPIHPIQEEMDQKQIILLDEDTDENGLPASLTDEDRKFIVPMALKNISPDPRWAATTPSPSALQPNAKAISTIVPSPLAQVEGDPTSNIDDLKKHILFLHNMTKTNSNFESKFVKFPSLQKDKAKTSGAGGSPPNPKRPQRPIHQYSAPIAPPTPKVPAPDGGGVGGAAYNPGEQPIGGYYQNEELANNQSLLKPTDTDSHPAAGGSSHGQKNPSEPQVILLNETLSTETSIEADRSPSINQPKAGSPARTTKRPPCLRNPESPKCIRQRRREEQQRQRERDEWFRGQSQYMQPRFEPIIQTINNTKRFAVSIEIPDSFKVSSEGSDGELLSRVERSQPSISSSSSSSSSSSRKIMPDYIKVSMENNTSVTDYFKHDVVMTSADVASDREFLIKNMEEHGGAGSANSHHNDTTPTADAYSETIDLNPNNCYSAIGLSNSQKKQCVKHTSVMPAISRGARAAIQECQFQFKNRRWNCSTTNDETVFGPMTSLAAPEMAFIHALAAATVTSFIARACRDGQLASCSCSRGSRPKQLHDDWKWGGCGDNLEFAYKFATDFIDSREKETNRETRGVKRKREEINKNRMHSDDTNAFNIGIKRNKNVDAKNDTSLVVRNVRKSTEAENSHILNENFDQHLLELEQRITKEILTSKIDEEEMIKLQEKIKQEIVNTKFFKGEQQPRKKKRKNQRAAADAPAYPRNGIKESYKDGGILPRSTATVKARSLMNLHNNEAGRRAVIKKARITCKCHGVSGSCSLITCWQQLSSIREIGDYLREKYEGATKVKINKRGRLQIKDLQFKVPTAHDLIYLDESPDWCRNSYALHWPGTHGRVCHKNSSGLESCAILCCGRGYNTKNIIVNERCNCKFHWCCQVKCEVCTKVLEEHTCK
# B3: Myc-tagged Wg (ligand, UniProt P09615 18-468)
# chain: GSSLSQVEGKQKSGRGRGSMWWGIAKVGEPNNITPIMYMDPAIHSTLRRKQRRLVRDNPGVLGALVKGANLAISECQHQFRNRRWNCSTRNFSRGKNLFGKIVDRGCRETSFIYAITSAAVTHSIARACSEGTIESCTCDYSHQSRSPQANHQAGSVAGVRDWEWGGCSDNIGFGFKFSREFVDTGERGRNLREKMNLHNNEAGRAHVQAEMRQECKCHGMSGSCTVKTCWMRLANFRVIGDNLKARFDGATRVQVTNSLRATNALAPVSPNAAGSNSVGSNGLIIPQSGLVYGEEEERMLNDHMPDILLENSHPISKIHHPNMPSPNSLPQAGQRGGRNGRRQGRKHNRYHFQLNPHNPEHKPPGSKDLVYLEPSPSFCEKNLRQGILGTHGRQCNETSLGVDGCGLMCCGRGYRRDEVVVVERCACTFHWCCEVKCKLCRTKKVIYTCL
# B4: Myc-tagged Wnt4 (ligand, UniProt P40589 22-539)
# chain: QVRNEDQLLMVGQNGDLDSSNPAIHHQQHQQHQQHQQHQQHQSNHNLNNGNMNSTILNTLMGNNAGQVVNSSPGGGGSMINQLGSSTSSVPSVIGGGVGSVGNPWHSAVGLGVPGNGMGLPSSHGLGGNMGSHPHGHALAGLAKLGIIVPGGQGLPGNLGYGGTMLNGGGVGGAAGMGLGIGSNTNNMDMQQGLYNEHFISEHTVMAVFTSQGQVGGPCRYMPATRRQNHQCRKETGLPGTLSEARRLATTHCEEQFRYDRWNCSIETRGKRNIFKKLYKETAFVHALTAAAMTHSIARACAEGRMTKCSCGPKKHNREAQDFQWGGCNDNLKHGKRVTRSFLDLRGGDGDEVSEILRHDSEVGIEAVSSQMMDKCKCHGVSGSCSMKTCWKKMADFNATATLLRQKYNEAIRKAPNQRSMRQVSSSRMKKPKQRRKKPQQSQYTTLYYLETSPSYCAVTKDRQCLHPDNCGTLCCGRGYTTQVVKQVEKCRCRFNNGRCCQLICDYCQRLENKYFCK
# B5: Myc-tagged Fz2 (receptor, UniProt Q9VVX3 23-694)
# chain: DGPLHSADHGMGGMGMGGHGLDASPAPGYGVPVIPKDPNLRCEEITIPMCRGIGYNMTSFPNEMNHETQDEAGLEVHQFWPLVEIKCSPDLKFFLCSMYTPICLEDYHKPLPVCRSVCERARSGCAPIMQQYSFEWPERMACEHLPLHGDPDNLCMEQPSYTEAGSGGSSGGSGGSGSGSGSGGKRKQGGSGSGGSGAGGSSGSTSTKPCRGRNSKNCQNPQGEKASGKECSCSCRSPLIFLGKEQLLQQQSQMPMMHHPHHWYMNLTVQRIAGVPNCGIPCKGPFFSNDEKDFAGLWIALWSGLCFCSTLMTLTTFIIDTERFKYPERPIVFLSACYFMVAVGYLSRNFLQNEEIACDGLLLRESSTGPHSCTLVFLLTYFFGMASSIWWVILSFTWFLAAGLKWGNEAITKHSQYFHLAAWLIPTVQSVAVLLLSAVDGDPILGICYVGNLNPDHLKTFVLAPLFVYLVIGTTFLMAGFVSLFRIRSVIKQQGGVGAGVKADKLEKLMIRIGIFSVLYTVPATIVIGCYLYEAAYFEDWIKALACPCAQVKGPGKKPLYSVLMLKYFMALAVGITSGVWIWSGKTLESWRRFWRRLLGAPDRTGANQALIKQRPPIPHPYAGSGMGMPVGSAAGSLLATPYTQAGGASVASTSHHHLHHHVLKQPAASHV
# B6: Myc-tagged Wnt2 (ligand, UniProt P28465 24-352)
# chain: FTSVMLCGRIPGLTPGQRNMCREMPDALIALGEGHQLGAQECQHQFRGHRWNCSEVWQRNVFAHVIPTASREAAYTYAIASAGAAYAVTAACARGNISTCGCDVRHKATPTGGGTPDEPWKWGGCSADVDFGMRYARRFMDARELERDSRTLMNLHNNRAGRTLVKKMLRTDCKCHGVSGSCVMKTCWKSLPPFRLVGDRLMLKYQKAKTVQAVKGKRGLRLVLSRKKHAGTARAQKPVLDWPKRMELIYLEASPNYCERSLQTGSQGTSGRTCQRTGHGPQSCDLLCCGRGHNTQHIRRTTQCRCQFRWCCEVKCDECDESYEEFTCK
# Molecular target: T1, GFP-tagged Ror (Drosophila)
# Test: co-IP; GFP- and Myc-tagged proteins co-transfected in Drosophila S2R+ cells; lysis in 50 mM Tris-Cl pH 7.5, 150 mM NaCl, 1% Triton X-100; IP with mouse anti-GFP and Protein G Sepharose at 4°C; western blot with anti-Myc and anti-GFP
row,binding,Molecule
1,binds,B1
2,binds,B2
3,binds,B3
4,binds,B4
5,binds,B5

# Molecular target: mCD8-GFP (UniProt P01731)
# Test: as above
row,binding,Molecule
1,no binding,B2
2,no binding,B6
3,no binding,B3
4,no binding,B4

# Molecular target: mCD8-GFP (UniProt P01731)
# Test: as above
# Remark: another data set of the same source
row,binding,Molecule
1,no binding,Myc-tagged Fz (from UniProt P18537 19-581) (receptor)
